In patent publication US6303761A, “Triaminepentaacetic acid compound and paramagnetic metal complex prepared from using the compound as ligand” (Department of Health The Executive Yuan, Republic of China, priority 1999, dated 2001):
Entries after “also recorded” stand apart in the source; their conditions may differ.

Assay: Relaxivity R1 and its pH dependence
Conditions: FIG. 12

CNC(=O)CN(CCN(CCN(CC(=O)[O-])CC(=O)NC)CC(=O)[O-])CC(=O)[O-].[Gd+3] [[Gd(DTPA-BMA)], diethylenetriamine pentaacetic acid bis(methylamide)-gadolinium(III)]
pH dependence of relaxivity R1: no pH dependence over the range 4-10; also recorded: in the pH range less than 4.0, R1 increase with the decrease of pH
